# Measured values: PubChem BioAssay AID1671193 (National Center for Advancing Translational Sciences (NCATS), 2021)
# Values joined by “and” are separate entries in the source; they are usually repeats but may differ in a detail not shown here. Equal entries are not always repeated. In all, about 150,000 compounds went through this assay and about 180 (0.12%) were called active. The inconclusive results got no clear call from the source; some entries with a clear call stand among them for comparison. Calls follow the shape of the dose curve; as a rule, active = well fitted cell-killing curve with a large enough effect; inconclusive = small, poorly fitted or top-dose-only effect, or effect the other way; inactive = flat fitted curve, though single readings scatter. Where the call is inconclusive, the potency comes from a doubtful curve fit.
# Assay: GF-AFC viability counterscreen for inhibitors of alpha-synuclein gene (SNCA) expression; also: nearly all actives have a fitted effect of over 30% in size
# Conditions: HEK-293-SNCA-luc viability, GF-AFC fluorescence, 24 h; series mostly up to 57.1 µM
# Summary of the method: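 Cytotoxicity counterscreen: after 24 h compound treatment of genome-edited SNCA-luciferase HEK-293 cells, live-cell protease substrate GF-AFC read by fluorescence after 30 min; activity scaled between DMSO (0%) and medium-only (-100%), curves Hill-fitted.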
# Potency is read from the fitted curve at half-maximal effect; tags tell the direction and shape of the fitted curve.
row,SMILES,Potency
1,Cc1nc2scc(CC(=O)NCc3ccco3)n2c(=O)c1-c1cc(C)n(-c2ccccc2F)n1,inactive
2,O=C(NC1CCCCC1)c1ccc(Cn2c(SCc3ccccc3F)nc3cccnc32)cc1,"inconclusive: 11.2 µM [cytotoxic, partial curve, poor fit]"
3,COCCN1C(=O)CC[C@]2(C(=O)N(C)Cc3cccnc3)CCCC[C@@H]12,"inconclusive: 8.91 µM [cytotoxic, single point]"
4,COc1ccc(C(F)(F)F)cc1NC(=O)c1sc2nc(-c3cccs3)ccc2c1N,"inconclusive: 11.2 µM [rising, partial curve, poor fit]"
5,O=C(Nc1ccc(C(F)(F)F)cc1)N1CCCC(Cn2c(C3CC3)nc3cccnc32)C1 (stereo unspecified),inactive
6,CN(C)CCN(C)C(=O)c1ccc(NC(=O)Nc2ccc(-c3nc(N4CCOCC4)c4ccn(CC(F)(F)F)c4n3)cc2)cc1,"inconclusive: 0.121 µM [cytotoxic, full curve]"
7,CNC(=O)c1cc(Oc2ccc(NC(=O)Nc3ccc(Cl)c(C(F)(F)F)c3)c(F)c2)ccn1,"inconclusive: 26.7 µM [cytotoxic, single point]"
8,COc1cccc(CNC(=O)CCc2cn(Cc3ccccc3Cl)c3ccccc23)c1,"inconclusive: 7.08 µM [rising, single point]"
9,COc1ccccc1CN1Cc2cc(NS(=O)(=O)c3ccc(C)c(F)c3)ccc2OC(C)C1=O (stereo unspecified),"inconclusive: 39.8 µM [cytotoxic, single point]"
10,CCOC(=O)c1cc(-c2ccccc2)n(CCCC(=O)Nc2ccc(C(C)C)cc2)c1C,"inconclusive: 20 µM [cytotoxic, partial curve, poor fit]"
11,COc1ccc(NC(=O)Cn2c(=O)n(C(C)C)c(=O)c3oc4ccccc4c32)cc1Cl,"inconclusive: 3.98 µM [cytotoxic, full curve, poor fit]"
12,Cn1c(=O)oc2ccc(C(=O)N[C@H](C3CCNCC3)C3CC(O)C3)cc21 (stereo partly specified),"inconclusive: 7.08 µM [cytotoxic, single point]"
13,O=C(c1cc(C2CC2)[nH]n1)N1CCc2nn(Cc3ccccc3)c(=O)n2CC1,"inconclusive: 1.12 µM [rising, full curve]"
14,O=C(c1cccs1)N1CC(Oc2cccc(-c3nc(-c4ccccc4)no3)c2)C1,"inconclusive: 3.98 µM [cytotoxic, full curve, poor fit]"
15,CCN(CC)C(=O)C1CCC(c2nc3ncccc3o2)CC1 (stereo unspecified),inactive
16,COc1ccc(-c2nc3ccccc3s2)cc1NC(=O)COc1ccc(C)cc1,inactive
17,CN(c1ccccc1)c1ccc2c(n1)CN(Cc1ccccc1)C(=O)CO2,inactive
18,NC(=O)Cn1ccc2cc(OCC3CCN(C(=O)CC4CC4)CC3)cnc21,inactive
19,CCN(CC)C(=O)N1CCC(Oc2ccc(-c3noc(COC)n3)cc2)C1 (stereo unspecified),"inconclusive: 3.16 µM [cytotoxic, full curve, poor fit]"
20,COc1ccc(Nc2ccnc(N3CCC(NC(=O)Cc4cccc(Cl)c4)CC3)n2)cc1,"inconclusive: 20 µM [cytotoxic, partial curve]"
21,NC(=O)N1CCCC(C(=O)N2CCN(c3nsc4ccccc34)CC2)C1 (stereo unspecified),"inconclusive: 17.8 µM [cytotoxic, single point]"

row,SMILES,Potency
1,Cn1c(=O)c(-c2cccs2)nc2cnc(OCc3ccccc3)nc21,"inconclusive: 39.8 µM [rising, partial curve, poor fit]"
2,COc1cccc(CN2CC[C@H]3C(=O)NCCCCCCN(Cc4ccncc4)[C@@H]3C2)c1OC,inactive
3,COc1ccc(NC(=O)Cc2c[nH]c3ncc(-c4ccccc4)cc23)cc1OC,inactive
4,CC(C)C[C@H](NC(=O)[C@@H](NC(=O)c1cccc(-c2ccccc2)n1)[C@@H](C)O)B(O)O,"inconclusive: 192 nM [cytotoxic, full curve] and active: 47.4 nM"
5,COCc1nncn1C1CCN(C(=O)c2ccc(F)c(Cl)c2)CC1,"inconclusive: 1.41 µM [rising, full curve, poor fit]"
6,CCOc1ccc2nc(C)cc(Nc3ccccc3OCC)c2c1,"inconclusive: 2 µM [cytotoxic, full curve, poor fit]"
7,COC(=O)c1c(SC)nc2ccccc2c1OCc1ccccc1C,"inconclusive: 0.251 µM [rising, full curve, poor fit]"
8,Cc1cccc(NC(=O)c2nc(S(C)(=O)=O)ncc2Cl)c1,active: 20 µM
9,COc1ccccc1-c1ccc(C(=O)N2C[C@@H](N(C)C)[C@H](C(C)C)C2)cc1,inactive
10,COc1ccc(-c2cc3ccc(O)c(CN4CCOCC4)c3oc2=O)cc1,"inconclusive: 10 µM [rising, partial curve, poor fit]"
11,Cn1cc(CN[C@H]2[C@H](O)[C@H](O)C[C@@H]2c2cccnc2)c2ccccc21,inactive
12,CNC(=O)c1cc(Oc2ccc(NC(=O)Nc3cc(C(C)(C)C)nn3-c3ccc4ncccc4c3)c(F)c2)ccn1,"inconclusive: 11.9 µM [cytotoxic, single point]"
13,COc1cccc(NC(=O)[C@@H]2C[C@H](c3ccc(F)cc3)N(Cc3csc(C)n3)C2)c1,"inconclusive: 31.6 µM [cytotoxic, single point]"
14,Cc1ccc(NS(=O)(=O)c2c(C(=O)N3CCC(C)CC3)c(C)n(C)c2C)cc1Cl,"inconclusive: 28.2 µM [cytotoxic, partial curve, poor fit]"
15,Cc1cc(Cl)ccc1-n1nc(C)c([C@@H]2C=C[C@@H](NC(=O)CCCC(=O)O)C2)c1C,inactive
16,CCN1CCN(CCNC(=O)c2nnn3cc(-c4ccccc4)[nH]c(=O)c23)CC1,inactive
17,Cc1ccc(NC(=O)c2ccc3c(c2)N(S(C)(=O)=O)CC3)cc1,inactive
18,COc1cccc(Nc2ncc3c(n2)C(C)(C(=O)NCCc2ccccn2)CC3)c1 (stereo unspecified),inactive
19,COc1cccc(C(=O)N2CCC3(CC2)CC(N(Cc2ccccc2)C2CC2)CCO3)c1 (stereo unspecified),inactive
20,CCc1ccc(CN(Cc2cn[nH]c2-c2ccc(OC)cc2)C(=O)Nc2ccc(C)c(F)c2)cc1,"inconclusive: 17.8 µM [cytotoxic, partial curve, poor fit]"
